According to article PMC4336329 (PLoS ONE, 2015):
About 14,000 (4.5%) of roughly 310,000 compounds showed an effect of 50% or more. The effect is printed as a negative number. This is one part of the list.

Each compound was assayed against human ether-à-go-go-related gene (hERG) potassium channel (human, UniProt Q12809) (assay: primary screen, population patch clamp on CHO cells stably expressing hERG).
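Also: peak tail current of the secondary pulse compared with the same well before compound.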

Sequence of human ether-à-go-go-related gene (hERG) potassium channel (Q12809 whole entry, looked up): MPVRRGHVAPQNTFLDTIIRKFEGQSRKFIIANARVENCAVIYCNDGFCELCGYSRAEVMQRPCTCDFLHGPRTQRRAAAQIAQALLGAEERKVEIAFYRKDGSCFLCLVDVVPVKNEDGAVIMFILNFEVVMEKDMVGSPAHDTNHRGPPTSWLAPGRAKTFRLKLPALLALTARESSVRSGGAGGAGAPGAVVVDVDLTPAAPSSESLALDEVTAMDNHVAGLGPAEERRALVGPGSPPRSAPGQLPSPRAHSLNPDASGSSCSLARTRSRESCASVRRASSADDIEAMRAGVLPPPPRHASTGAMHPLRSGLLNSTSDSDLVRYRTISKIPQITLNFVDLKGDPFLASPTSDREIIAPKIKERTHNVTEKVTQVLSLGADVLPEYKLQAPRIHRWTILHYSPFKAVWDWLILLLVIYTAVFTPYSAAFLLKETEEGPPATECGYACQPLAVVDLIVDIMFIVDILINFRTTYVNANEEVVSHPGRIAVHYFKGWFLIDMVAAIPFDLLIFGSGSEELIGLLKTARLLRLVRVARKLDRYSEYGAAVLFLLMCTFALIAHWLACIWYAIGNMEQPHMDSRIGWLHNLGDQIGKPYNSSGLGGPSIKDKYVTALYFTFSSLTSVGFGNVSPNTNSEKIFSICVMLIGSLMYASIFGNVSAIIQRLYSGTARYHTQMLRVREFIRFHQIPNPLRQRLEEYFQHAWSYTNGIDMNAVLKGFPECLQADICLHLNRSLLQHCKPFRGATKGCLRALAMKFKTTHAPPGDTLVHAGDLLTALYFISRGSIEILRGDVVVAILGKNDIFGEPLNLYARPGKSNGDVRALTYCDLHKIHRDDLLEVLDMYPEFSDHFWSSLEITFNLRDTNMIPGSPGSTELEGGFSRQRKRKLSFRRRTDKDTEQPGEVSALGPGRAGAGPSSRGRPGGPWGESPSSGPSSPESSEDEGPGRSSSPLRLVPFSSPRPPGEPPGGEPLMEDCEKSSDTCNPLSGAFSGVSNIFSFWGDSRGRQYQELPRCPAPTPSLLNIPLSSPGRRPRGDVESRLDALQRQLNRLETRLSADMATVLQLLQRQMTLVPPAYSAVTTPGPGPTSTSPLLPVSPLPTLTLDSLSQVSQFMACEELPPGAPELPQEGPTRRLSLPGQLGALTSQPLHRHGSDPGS

Going from `O=c1cc(/C=C/c2cccs2)[nH]c2ccccc12` to `COc1cccc2[nH]c3ccccc3c(=O)c12`, the “hERG current change (%, negative = inhibition) at 10uM” value rises from 7.48% to 7.57%.

Going from `Cc1ccc(C)c(NC(=O)c2cc(-c3cccnc3)nc3ccccc23)c1` to `CC(C)(C)C(=O)Nc1ccc(-c2nc3ccccc3c(=O)o2)cc1`, the “hERG current change (%, negative = inhibition) at 10uM” value rises from 5.65% to 14.9%.

First: Cc1cc(/C=C(\C#N)C(=O)O)c(C)n1-c1ccc(Br)cc1
Second: Cc1ccc(-n2ccc(=O)c(C(=O)O)n2)cc1
The “hERG current change (%, negative = inhibition) at 10uM” value of the first is higher: 5.6% for the first, -0.306% for the second.

Compared with `COc1cc(C(C)=O)ccc1OCC(O)CN1CCN(c2c(C)cccc2C)CC1` (stereo not drawn), `COc1cc2nc(CN3CCN(C(c4ccccc4)c4ccccc4)CC3)[nH]c(=O)c2cc1OC` is higher in “hERG current change (%, negative = inhibition) at 10uM” value: -60.3% for the first, 1.59% for the second.

First: O=C(c1ccc2[nH]c(=O)c(=O)[nH]c2c1)N1CCc2ccccc21
Second: CCN1CCc2c(OCC(=O)N3CCc4ccccc43)cccc2C1=O
The “hERG current change (%, negative = inhibition) at 10uM” value of the first is higher: 9.52% for the first, -9.73% for the second.

Going from `CCSc1ccc([C@@H]2[C@@H]3C(=O)N(CC)C(=O)[C@@H]3[C@]3(C(=O)OC)CCCN23)cc1.O=C(O)C(F)(F)F` to `CC(=O)Nc1ccc(C(=O)COC(=O)C2CC3CCCC(C2)C3=O)cc1` (stereo not drawn), the “hERG current change (%, negative = inhibition) at 10uM” value rises from 3.5% to 12.9%.

Going from `O=C(NN1C(=O)c2cc(Br)ccc2NC1c1cc(Br)cc(Br)c1O)c1ccncc1` (stereo not drawn) to `O=C(NN1C(=O)c2ccccc2NC1c1ccoc1)c1ccc([N+](=O)[O-])cc1` (stereo not drawn), the “hERG current change (%, negative = inhibition) at 10uM” value falls from 3.09% to -41.8%.

Going from `O=c1nc2n(c3cc(Cl)c(S(=O)(=O)N4CCOCC4)cc13)CCCCC2` to `COC1=C(N2CCOCC2)C(=O)c2ccccc2C1=O`, the “hERG current change (%, negative = inhibition) at 10uM” value rises from 9.97% to 11.2%.

First: Cc1nc2ccccc2c(=O)n1NC(=O)c1ccc([N+](=O)[O-])cc1
Second: O=[N+]([O-])c1ccc(NC(=S)NCc2ccncc2)cc1
The “hERG current change (%, negative = inhibition) at 10uM” value of the first is higher: 13.3% for the first, -11.2% for the second.

Going from `O=C(CC(c1ccccc1)c1ccccc1)Nc1nn[nH]n1` to `O=C(/N=C1/c2ccccc2CN1c1ccccc1)Nc1ccccc1`, the “hERG current change (%, negative = inhibition) at 10uM” value falls from 16.3% to -12.7%.

Compared with `Cc1ccc(CNC(=O)CCSCc2ccccc2F)cc1`, `COc1ccc(CNC(=O)CCCn2nc(C)c3c(C)n(-c4ccccc4)nc3c2=O)cc1` is higher in “hERG current change (%, negative = inhibition) at 10uM” value: 0.723% for the first, 2.91% for the second.

First: Fc1cnc(N2CCc3ccccc32)nc1N1CCc2ccccc21
Second: COc1ccc2c(c1)CCc1c-2nc2ccccc2c1N1CCOCC1
The “hERG current change (%, negative = inhibition) at 10uM” value of the first is higher: 4.54% for the first, -14.6% for the second.

First: CCN1CCN(S(=O)(=O)c2ccc(Cl)c(C(=O)NC3CC3)c2)CC1
Second: O=C(NCC1CCCO1)c1ccc(Cl)c(S(=O)(=O)Nc2ccccc2)c1 (stereo not drawn)
The “hERG current change (%, negative = inhibition) at 10uM” value of the first is higher: 13.9% for the first, 2.86% for the second.

Compared with `CC(C)C(=O)Nc1ccc([N+](=O)[O-])cc1Br`, `CC(C)NC(=O)CSCc1cccc(Br)c1` is higher in “hERG current change (%, negative = inhibition) at 10uM” value: -5.22% for the first, 9.33% for the second.

Compared with `CC(=O)Nc1ccc(-c2nc(C)c(C(C)=O)n2O)cc1`, `CCOC(=O)c1sc(NC(C)=O)cc1C` is higher in “hERG current change (%, negative = inhibition) at 10uM” value: -0.0921% for the first, 9.67% for the second.

Compared with `COc1ccc(C2C3=C(CC(C)(C)CC3=O)Nc3c2c(=O)n(C)c(=O)n3C)cc1OC` (stereo not drawn), `COc1ccc(OC)c(S(=O)(=O)n2c([N+](=O)[O-])cnc2C)c1` is higher in “hERG current change (%, negative = inhibition) at 10uM” value: 7.95% for the first, 13.9% for the second.

Compared with `O=C(c1ccco1)N1CCN(C(=O)c2ccc(Cn3cc(Br)cn3)o2)CC1`, `Cc1cc(C)n(-c2cc(N3CCN(C(=O)c4cccc(Br)c4)CC3)ccc2[N+](=O)[O-])n1` is lower in “hERG current change (%, negative = inhibition) at 10uM” value: -29.5% for the first, -67.6% for the second.

Going from `CN(C)c1ccc(C(=O)N/N=C/c2cc(Br)cc(Br)c2O)cc1` to `COc1ccc(C(=O)N/N=C/c2cccc3cccnc23)cc1`, the “hERG current change (%, negative = inhibition) at 10uM” value falls from 20% to -9.09%.

First: Cc1ccccc1OCCCc1c(C)n[nH]c1C.Cl
Second: CCCCCC(=O)Nc1cc(N(C)C)nc2ccccc12
The “hERG current change (%, negative = inhibition) at 10uM” value of the first is higher: 6.26% for the first, -74.9% for the second.

Going from `Cc1ccc2cc(CCNC(=O)c3ccc4c(c3)OCO4)c(=O)[nH]c2c1` to `Cc1ccc(/C=N/NC(=O)c2nnn(-c3nonc3N)c2-c2ccc3c(c2)OCO3)s1`, the “hERG current change (%, negative = inhibition) at 10uM” value rises from -6.21% to 22.3%.

First: COc1ccccc1C(=O)CSc1nnc(-c2ccco2)o1
Second: O=C(CSc1nnc(-c2ccco2)n1CC1CCCO1)c1ccc(F)cc1 (stereo not drawn)
The “hERG current change (%, negative = inhibition) at 10uM” value of the first is higher: 28.9% for the first, -31.6% for the second.

First: Nc1cc2c(cc1C(=O)c1ccccc1F)OCCO2
Second: COc1ccc(OC(=O)c2cc3ccccc3o2)cc1
The “hERG current change (%, negative = inhibition) at 10uM” value of the first is lower: -2.32% for the first, 18.4% for the second.

Compared with `COc1ccccc1C1Nc2cccc3cccc(c23)N1`, `COc1cccc(C(=O)OCC(=O)NC(C)CCc2ccccc2)c1O` (stereo not drawn) is higher in “hERG current change (%, negative = inhibition) at 10uM” value: -50.7% for the first, -6.36% for the second.

Compared with `CC(C)NC(=O)C(C)n1cccc1C(=O)c1ccccc1` (stereo not drawn), `O=C(NC(=S)NNC(=O)c1ccccc1[N+](=O)[O-])c1ccccc1` is higher in “hERG current change (%, negative = inhibition) at 10uM” value: -4.12% for the first, 11.3% for the second.

First: Nc1cc(-c2ccc(Cl)cc2)nn1S(=O)(=O)c1ccc(Cl)cc1
Second: Cc1ccc(NC(=O)c2ccc(NS(=O)(=O)c3ccc4[nH]c(=O)[nH]c4c3)cc2)nc1
The “hERG current change (%, negative = inhibition) at 10uM” value of the first is higher: 19.1% for the first, 6.85% for the second.

Going from `COc1cc(/C=N/NC(=O)CC2C(=O)NN=C2C)ccc1O` (stereo not drawn) to `COc1cccc(CN2CC(C(=O)NCc3cnn(C)c3)CCC2=O)c1` (stereo not drawn), the “hERG current change (%, negative = inhibition) at 10uM” value rises from 1.83% to 7.43%.

First: CCn1c(C)c(C2=CCN(S(=O)(=O)c3ccccc3)CC2)c2ccccc21
Second: O=C(CSc1ncccc1-c1nc2ccccc2[nH]1)NCc1ccco1
The “hERG current change (%, negative = inhibition) at 10uM” value of the first is higher: -17.8% for the first, -23.8% for the second.

Compared with `Cn1nnnc1SCc1nc2ccccc2s1`, `CCCC(=O)Nc1nnc(S(=O)(=O)N(CC)c2ccccc2)s1` is higher in “hERG current change (%, negative = inhibition) at 10uM” value: 13.1% for the first, 13.8% for the second.

Compared with `Cc1cccc(C)c1NC(=O)C1(N(C(=O)c2ccccn2)c2ccc(O)cc2)CCCCC1`, `COC(=O)c1ccccc1NC(=O)C1CCN(C(=O)N2CCOc3ccccc32)CC1` is lower in “hERG current change (%, negative = inhibition) at 10uM” value: 0.707% for the first, -59.6% for the second.

Going from `CCOc1ccc(NC(=O)CN(C)C(=O)c2nc3nc(C)cc(C)n3n2)cc1OCC` to `CCSc1nnc(NC(=O)CSc2nnc(CNC(=O)c3ccc(OC)c(OC)c3)o2)s1`, the “hERG current change (%, negative = inhibition) at 10uM” value falls from 19.4% to 13%.

Compared with `Cc1ccccc1NC(=O)CSc1nc(N2CCCCC2)nc(N2CCCCC2)n1`, `Cc1c(Cl)cccc1NC(=O)CSc1nc2ncc(Cl)cc2[nH]1` is higher in “hERG current change (%, negative = inhibition) at 10uM” value: 3.4% for the first, 17.7% for the second.

Going from `COC(=O)CCCCCN1C(=O)/C(=C\c2ccncc2)SC1=S` to `COC(=O)c1cc(COC(=O)CNC(=O)c2cccc(C)c2)oc1C`, the “hERG current change (%, negative = inhibition) at 10uM” value falls from -5.05% to -8.02%.

First: COc1cccc(NC(=O)CN(C)CC(=O)Nc2cccc(C(F)(F)F)c2)c1
Second: O=C(CN(C(=O)c1csnn1)c1cccc(C(F)(F)F)c1)NCc1ccc(F)cc1
The “hERG current change (%, negative = inhibition) at 10uM” value of the first is lower: -35% for the first, -12.7% for the second.

Going from `CC1CC1C(=O)N(CCC1=CCCCC1)c1c(N)n(Cc2ccccc2)c(=O)[nH]c1=O` (stereo not drawn) to `COc1ccccc1C(=O)Nc1sc2c(c1C(N)=O)CCCC2`, the “hERG current change (%, negative = inhibition) at 10uM” value rises from 0.478% to 24%.

First: COc1ccc(OCc2n(CC(=O)OC3CC(C)CCC3C(C)C)c3ccccc3[n+]2C)cc1.[Cl-] (stereo not drawn)
Second: CCCOc1ccc(C(=O)N(Cc2cccs2)C2CCS(=O)(=O)C2)cc1 (stereo not drawn)
The “hERG current change (%, negative = inhibition) at 10uM” value of the first is lower: -76.4% for the first, -8.87% for the second.

First: COc1ccc(N2CCN(c3ccc(NC(=O)NN)cc3)CC2)cc1
Second: Cc1ccc(CNC(=O)CCC2CCCN(Cc3ccc4cccc(F)c4n3)C2)o1 (stereo not drawn)
The “hERG current change (%, negative = inhibition) at 10uM” value of the first is higher: 10.8% for the first, -52.1% for the second.

First: Cc1ccc2oc(C(=O)Nc3nonc3C)c(C)c2c1
Second: CCOC(=O)c1c(C)[nH]c(C(=O)C(C)OC(=O)c2oc3ccccc3c2COC)c1C (stereo not drawn)
The “hERG current change (%, negative = inhibition) at 10uM” value of the first is lower: 10.6% for the first, 10.7% for the second.

Going from `C=C1CCC[C@]2(C)C[C@H]3OC(=O)C(CNC(CC)CO)[C@H]3CC12` (stereo partly drawn) to `CCOC(=O)CCc1c(C)c2ccc(OC3CCCCC3=O)c(C)c2oc1=O` (stereo not drawn), the “hERG current change (%, negative = inhibition) at 10uM” value falls from 14.8% to -2.38%.

Compared with `O=[N+]([O-])c1cccnc1Oc1ccc(F)cc1F`, `Clc1ccc2c(c1)C(c1cccs1)=NNC(c1cccnc1)=N2` is lower in “hERG current change (%, negative = inhibition) at 10uM” value: -2.31% for the first, -22% for the second.

Compared with `Cn1c(NCC(O)CO)nc2c1c(=O)n(Cc1ccc(Cl)c(Cl)c1)c(=O)n2C` (stereo not drawn), `Cc1nn(Cc2ccc(Cl)cc2Cl)c(C)c1NC(=O)CCl` is lower in “hERG current change (%, negative = inhibition) at 10uM” value: -18.5% for the first, -60.9% for the second.

First: CC1(C)CC(NC(=O)c2coc(=O)c(Br)c2)CC(C)(C)N1
Second: O=C(NC1CCCCCC1)c1ccco1
The “hERG current change (%, negative = inhibition) at 10uM” value of the first is lower: 1.43% for the first, 19.1% for the second.

Compared with `C/C=C/C=C\C(=O)Nc1cccc(C2=NOC3(C2)C[C@@H](C(N)=O)N(C(=O)c2cc([N+](=O)[O-])cc([N+](=O)[O-])c2)C3)c1` (stereo partly drawn), `Cc1cccc(NC(=O)CCNS(=O)(=O)c2cccc3nonc23)c1` is higher in “hERG current change (%, negative = inhibition) at 10uM” value: 6.27% for the first, 14.4% for the second.

Going from `Cc1ccc(-n2cc(CNCCCn3ccnc3C)c(-c3ccc(F)cc3)n2)cc1` to `CCOC(=O)c1ccccc1NC(=O)COC(=O)C(CCSC)NC(=O)COc1ccccc1` (stereo not drawn), the “hERG current change (%, negative = inhibition) at 10uM” value rises from -71.7% to -29.2%.

In the case of `CC(C)NC(=O)NC(=O)COC(=O)C1(C)CC1(Cl)Cl` (stereo not drawn), the “hERG current change (%, negative = inhibition) at 10uM” value is reported as 0.161%.
